Here are results for 82 compounds from ChEMBL document CHEMBL4888484, “Replenishing the malaria drug discovery pipeline: Screening and hit evaluation of the MMV Hit Generation Library 1 (HGL1) against asexual blood stage Plasmodium falciparum ,using a nano luciferase reporter read-out” (2022).

Broadly, the % Inhibition is the drop in the measured response relative to a control, in per cent.

Structures are written as SMILES. Out of some 150,000 compounds screened, about 540 (0.36%) showed an effect of 50% or more. The list shows a part of the results.

In this assay the test system is Plasmodium falciparum. Briefly: Primary screen in NF54 nanoGlo assay, in single point, at 2uM, 72h; a lower Z score goes with more inhibition. The assay is classed as functional, Erythrocyte. The settings on record: timepoint 72 hour.
As to `Cc1ccc(NC(=O)CNC(=O)c2ccc(-c3noc(C4CCCC4)n3)cc2)c(Cl)c1`, the “% Inhibition” value was -6% and the Z score amounted to 1.11.
With `CC(C)[C@@]1(CO)CCCN(Cc2cnn(C)c2C(F)(F)F)C1`, the “% Inhibition” value is reported as -11% and the Z score was determined as 1.5.
For the compound `CCC[C@H]1CCc2c(sc(NC(=O)c3c(C)noc3C)c2C#N)C1`, the “% Inhibition” value is 9% and the Z score is -1.03.
In the same order, the values of `CCOC(=O)c1cc(OCc2nnc(-c3ccccc3)o2)cc(C(=O)OCC)c1` are -17% and 2.37.
For `CN1CCN(C[C@@H](O)CN(C)C(=O)CC2CCCCCC2)CC1`, in that order: 1% and -0.15.
In the same order, the values of `CC[C@H]1CCCCN1C(=O)Cn1c(=O)c2c(C(=O)OC)cc(C)nc2n(-c2cccc(OC)c2)c1=O` are -10% and 1.23.
Take `COc1cccc(Cn2c(=O)c3sccc3n(CC(=O)NC(C)(C)C)c2=O)c1`: the “% Inhibition” value is 34% and the Z score is given as -3.83.
For `CCCC(=O)Nc1cccc(C2OC(=O)N(Cc3cccc(Cl)c3)C2C(=O)NCc2ccco2)c1` (centres undefined), in that order: -7% and 0.72.
For `O=C(OCc1nnc(-c2ccccc2)o1)c1cc(Cl)c[nH]1`, the “% Inhibition” value is -8% and the Z score is listed as 0.95.
`CCCn1c(-n2nc(C)nc2-c2cn(C)c(=O)[nH]c2=O)nc2ccccc21`: the “% Inhibition” value was 9% and the Z score is -1.13.
For `C[C@@H](CS(C)(=O)=O)NC(=O)c1cncc(Br)c1`, in that order: -9% and 1.05.
In the same order, the values of `O=C(NCc1cccs1)[C@H]1CCCN(c2nnc3ccccn23)C1` are -10% and 1.14.
As to `C=CC(C)(CC)C(=O)N1CCN(C(C)C(=O)N2CCCCC2)CC1` (centres undefined), the “% Inhibition” value is reported as -19% and the Z score amounted to 1.98.
For `Nc1cc(Br)ccc1CO`, in that order: 26% and -2.93.
In the same order, the values of `Cc1cc(CN2CCCC2)cc(C)c1Oc1cncc(CN(C)C)n1` are -7% and 0.67.
For `CC1C(C(F)(F)F)CCN1C(=O)Cn1c(=O)cnc2ccccc21` (centres undefined), in that order: -18% and 2.07.
Consider `Cc1cnc(CCNC(=O)C2CCCC2)n1C1CCC1`, for which the “% Inhibition” value is on record as -4% and the Z score stood at 0.8.
For `CC(=O)N(c1nc(CN2CCCC2C2CCCN2Cc2ccccc2)cs1)C1CC1` (centres undefined), in that order: -3% and 0.42.
For `Cc1nc2ccc(N(C)C(=O)CC(=O)NCC(F)(F)F)cc2s1`, in that order: -9% and 0.9.
Consider `COc1cc(C)c(S(=O)(=O)N2CCN(S(=O)(=O)c3cc(C)c(OC)cc3C)[C@@H](C)C2)cc1C`, for which the “% Inhibition” value is listed as 26% and the Z score was -2.92.
For `Cc1noc(C)c1CN(C)Cc1ccc(-c2ccccc2C#N)o1`, in that order: 2% and -0.27.
In the same order, the values of `Cc1ccc(NC(=O)c2cccc3c(=O)c4c([nH]c23)CCC4)cc1Cl` are -11% and 2.08.
For `O=C(NCc1nc(CN2CCO[C@H](C(F)F)C2)cs1)c1ccccc1`, in that order: 0% and 0.07.
In the case of `CN(C)S(=O)(=O)N1C[C@H]2CC[C@@H](C1)N(C(=O)c1n[nH]c3ccccc13)C2`, the “% Inhibition” value is reported as -15% and the Z score was found to be 2.54.
Turning to `CN1CC[C@@H](c2nc(-c3cccc(OCC(F)F)n3)no2)S1(=O)=O`, the “% Inhibition” value is -5% and the Z score is recorded as 0.9.
`Cc1nc2ccc(C(=O)N3CCOc4ccc(CN5CCOCC5)cc4C3)cc2nc1C`: the “% Inhibition” value was -6% and the Z score was found to be 0.95.
For `CC(C)c1cc(-c2nc(N(C)C)no2)n[nH]1`, in that order: -6% and 1.03.
In the same order, the values of `CC(=O)N1CCc2[nH]cnc2C12CCN(C(=O)c1ccc(O)cc1)CC2` are -2% and 0.26.
Consider `CN(C)c1ccc(COCc2ccc(C#N)cc2)cc1`, for which the “% Inhibition” value stood at 0% and the Z score is reported as -0.06.
For `CCN(CCN(C)C)C(=O)c1cc(C)nc(C)n1`, in that order: -13% and 1.16.
For the compound `Cc1ccsc1-c1ccc(C(=O)N[C@H]2CC[C@@H](N)C2)cc1`, the “% Inhibition” value is listed as -5% and the Z score is reported as 0.75.
For the compound `Cc1nocc1S(=O)(=O)N[C@H]1CC(=O)N(C)[C@@H]1c1cccnc1`, the “% Inhibition” value is -12% and the Z score is listed as 2.33.
In the same order, the values of `Cc1nnc(NC(=O)CC[C@@H](C)[C@H]2CC[C@H]3[C@@H]4CC[C@@H]5C[C@H](O)CC[C@]5(C)[C@H]4C[C@H](O)[C@]23C)s1` are -13% and 1.68.
For `COc1cc2c(cc1OC)CN(C(=O)C1CCOCC1)CC2`, in that order: -17% and 1.4.
For `CS(=O)(=O)N1CCC(C(=O)N[C@@H](CN2C(=O)COC2=O)c2ccccc2)CC1`, in that order: 18% and -2.87.
As for `CCOC(=O)C(=O)N1CCN(c2nc3nccc(-c4cc(Cl)ccc4Cl)n3n2)CC1`, the “% Inhibition” value is on record as -16% and the Z score came to 2.16.
In the same order, the values of `Cc1ccsc1CN(C)C(=O)c1cn(Cc2cccc3ccccc23)nn1` are -10% and 1.56.
For `COc1ccc(CCC(=O)N2C3CCC2CC(OC)C3)cc1` (centres undefined), in that order: -18% and 2.26.
For `COCCCn1cnc2c(-c3ccccc3)c[nH]c2c1=O`, in that order: -5% and 0.89.
As to `O=C(CC1CCCCC1)Nc1ncc(C2CCNCC2)s1`, the “% Inhibition” value is on record as 9% and the Z score is listed as -1.77.
In the same order, the values of `Cn1cnn(CCOc2ccc(F)cc2Cl)c1=O` are -1% and 0.12.
`Fc1ccc2oc(N3CCOC[C@H]3c3nc(-c4cccs4)no3)nc2c1`: the “% Inhibition” value stood at 0% and the Z score is recorded as -0.05.
In the same order, the values of `COc1ccc(CCn2c(-c3c(OC)ccc4ccccc34)nc3ccc(Cl)cc3c2=O)cc1` are 0% and -0.01.
In the same order, the values of `Cc1ccc2nc(N3CCC(C)CC3)cc(=O)n2c1` are -8% and 1.11.
For `COc1ccc2cc1Oc1ccc(cc1)CC1c3cc(OC)c(O)c(c3CCN1C)Oc1cc3c(cc1OC)CCN(C)C3C2` (centres undefined), in that order: -4% and 0.85.
In the case of `O=C1C[C@@H](C(=O)Nc2ccccc2)N=C(N2CCOCC2)N1`, the “% Inhibition” value is -6% and the Z score is reported as 0.83.
For `C[C@H](Oc1ccccc1)C(=O)N1CCC(c2nc(-c3ccc4c(c3)OCO4)no2)CC1`, in that order: 29% and -0.72.
In the same order, the values of `CC(=O)Nc1c(C)nn(-c2ccccc2)c1N1CCC(C(=O)N2CCC(N3CCCCC3)CC2)CC1` are -11% and 2.
For `COc1cccc(Cl)c1CC(=O)N(C)C[C@H](C)c1nnn[nH]1`, in that order: 8% and -1.36.
`Cc1csc(CCNC(=O)N2CCOC(C)(C)C2)n1`: the “% Inhibition” value is recorded as -6% and the Z score turned out to be 0.6.
In the same order, the values of `CN(C)C(=O)N1CCC(CNC(=O)C(C)(C)C)CC1` are 3% and -0.31.
For `O=C(NCC#CCN1CCOCC1)NCc1ccccc1`, in that order: -16% and 1.82.
In the same order, the values of `Cc1ccc(S(=O)(=O)Nc2ccc(Oc3ccc4nnnn4n3)cc2)cc1` are -8% and 1.1.
For the compound `Cn1c(CCN2CCOc3ccccc3[C@@H]2CO)nc2ccccc21`, the “% Inhibition” value is given as -2% and the Z score stood at 0.26.
In the same order, the values of `O=C(CCn1cncn1)N1CC[C@@](O)(c2ccccc2)C1` are -17% and 1.49.
In the same order, the values of `CC(C)c1noc([C@H](C)N(C)CC2CCCCC2)n1` are 4% and -0.43.
For `Cc1cc(N2CCN(C(=O)c3cccs3)CC2)nc(N2CCOCC2)n1`, in that order: -9% and 1.24.
As for `Cc1nnc(COc2ccc(CCO)cc2-n2nc3ccccc3n2)s1`, the “% Inhibition” value was -10% and the Z score is 1.85.
In the same order, the values of `CCOC(=O)CN(C(=O)Cc1cnn(C)c1)C1CCCCC1` are -6% and 0.57.
In the same order, the values of `CC(C)(CN1C[C@H](C(=O)O)[C@@H](c2cccnc2)C1)N1CCCCC1` are -13% and 2.45.
For the compound `CN(CCCCN1CCOCC1)C(=O)c1cn(CC2CCCCC2)nn1`, the “% Inhibition” value was -13% and the Z score came out at 2.58.
For the compound `C[C@@H](COc1ccc(F)cc1F)NC(=O)NC(C(N)=O)C(N)=O`, the “% Inhibition” value turned out to be 11% and the Z score is reported as -1.71.
For `COc1ccc(CNC(=O)c2cc3c([nH]c2=O)CCCC3=O)cc1`, in that order: -3% and 0.37.
In the same order, the values of `CCC(C)N1C(=O)CC(C(=O)O)C1c1cnn(-c2ccccc2)c1` (centres undefined) are -6% and 1.24.
In the same order, the values of `Cc1ccc(NC(=O)N2CCC(N3CCC(CC4CC4)(C(N)=O)CC3)CC2)c(C)c1` are 3% and -0.4.
Regarding `Cc1cc(CN(C)C(=O)c2sc(-c3ccco3)nc2-c2ccccc2)no1`, the “% Inhibition” value is reported as -3% and the Z score is 0.35.
In the same order, the values of `CCc1ccc2c(c1)N=C(c1ccccc1)N=C(c1cccs1)N2` are -10% and 1.15.
For `COc1cc(NC(=O)c2[nH]c3ccccc3c2Br)ccc1N1CCOC1=O`, in that order: 17% and -2.
For `C[C@H]1CS(=O)(=O)C[C@H]1NC(=O)Nc1ccc2ccoc2c1`, in that order: 35% and -5.09.
Turning to `Cc1cccc(NC(=O)c2cn3c4c(cccc4c2=O)CCC3)c1`, the “% Inhibition” value is given as -9% and the Z score is given as 1.41.
For `Cc1cc(N2CCC(C(=O)Nc3ncccn3)CC2)c2ccccc2n1`, in that order: -4% and 0.53.
In the same order, the values of `COc1ccc(S(=O)(=O)N2[C@@H]3CC[C@H]2CC(NC(=O)c2ccncc2)C3)cc1` (some centres undefined) are -5% and 0.94.
In the same order, the values of `CCc1nnc(-c2cccn2CC(=O)NCc2cccc(OC)c2)o1` are -8% and 1.27.
`O=C(NCc1ccc(F)cc1)C(=O)N[C@H]1CCCc2occc21`: the “% Inhibition” value was 8% and the Z score is given as -0.94.
For `Cc1cnn(-c2ccc(C(=O)Nc3cccnc3)o2)c1`, the “% Inhibition” value is reported as -9% and the Z score is on record as 1.33.
In the same order, the values of `CC(C)c1ccc(NC(=O)N2CCS(=O)(=O)CC[C@@H]2C)cc1F` are -6% and 0.66.
In the case of `CCn1nnc(C)c1C(=O)N1CCC(F)(c2cccc(OC)c2)CC1`, the “% Inhibition” value is -12% and the Z score was determined as 1.93.
In the same order, the values of `COc1ccc(-c2nn(C)c3ncnc(N)c23)c(F)c1` are -8% and 1.1.
On to `Oc1ccc([C@@H](Cc2nc(-c3ccncc3)no2)C2CC2)cc1`, for which the “% Inhibition” value was 14% and the Z score is given as -1.73.
For `CC(CN1CCN(c2ccccc2)CC1)NC(=O)C1CC2CCC1O2` (centres undefined), in that order: 5% and -0.99.
On to `CCCS(=O)(=O)Nc1ccnn1Cc1sccc1C`, for which the “% Inhibition” value was 2% and the Z score was -0.29.
For the compound `CC(=O)c1ccc(NC(=O)Cn2c(=O)c(N3CCCCC3)nc3ccccc32)cc1`, the “% Inhibition” value is -14% and the Z score worked out at 1.34.
